# Measured values: PubChem BioAssay AID624296 (National Center for Advancing Translational Sciences (NCATS), 2012)
# Screen size: about 350,000 compounds; about 9,900 (2.8%) were called active. Inconclusive means that the source gave no clear call. Such entries were picked first, then a sample of the others. Calls come from the whole dose curve; as a rule, active = well fitted activation curve with a large enough effect; inconclusive = small, poorly fitted or top-dose-only effect; inactive = no such curve, though single readings can be large or run the other way. Potencies of inconclusive entries are left out as doubtful fits.
# Experiment: A quantitative high throughput screen for small molecules that induce DNA re-replication in MCF 10a normal breast cells. Note: nearly all actives have a fitted effect of over 50% in size.
# Settings: MCF 10A DNA re-replication, Hoechst nuclear intensity, 48 h; series mostly up to 46.1 µM
# Potency is the fitted concentration of half-maximal effect; tags give direction and shape of the fitted curve.
row,Structure (SMILES),Potency
1,CCN(CC(=O)Nc1c(F)cccc1F)C(=O)CN(C)S(=O)(=O)c1ccc(F)cc1,inactive
2,Cc1ccc(CNC(=S)Nc2ccc(NS(=O)(=O)c3ccc(C)cc3)cc2)cc1,"inconclusive [activator, single point]"
3,COc1ccc(Cn2c(-c3ccc(Br)cc3)c[n+]3ccccc23)cc1,inactive
4,O=C(CCCc1nc2ccccc2s1)Nc1ccc(N2CCOCC2)cc1,"inconclusive [activator, partial curve, poor fit]"
5,COc1ccccc1N1CCN(C(=S)Nc2cccc(C)c2)CC1,active: 16.4 µM
6,CC(OC(=O)CCOc1ccccc1)C(=O)Nc1ccc(Cl)cn1 (stereo not given),active: 16.4 µM
7,COc1cc(/C=C/c2nc3ccccc3s2)cc(OC)c1O,"inconclusive [activator, single point]"
8,CCC(C)(C)C1CCC(=NNc2nc3ccccc3[nH]2)CC1 (stereo not given),"inconclusive [activator, partial curve]"
9,O=C(Cc1ccccn1)c1ccncc1,"inconclusive [activator, full curve]"
10,COc1cccc(/C=C/C(=O)c2ccc3c(c2)OCO3)c1OC,"inconclusive [activator, partial curve]"
11,O/N=C/c1cccnc1Sc1ccccc1,inactive
12,O=C(Nc1ccc(Cl)cc1)N1CCC(CO)(Cc2ccccc2)CC1,"inconclusive [activator, single point]"
13,O=C(NCC(c1cccs1)N1CCOCC1)c1cnc(Cl)c(Cl)c1 (stereo not given),inactive
14,CCc1ccc(OCC(=O)Nc2ccc3[nH]ncc3c2)cc1,inactive
15,Cc1ccc(C)c(NC(=O)CCC(=O)N2CCOc3ccccc32)c1,"inconclusive [activator, single point]"
16,Cc1ccc2sc(-c3ccc(NC(=O)/C=C\C(=O)O)cc3)nc2c1,active: 23.1 µM
17,CCCN(CC(=O)Nc1ccccc1OC)C(=O)c1cc2ccccc2o1,"inconclusive [activator, single point]"
18,Cc1onc(-c2ccccc2Cl)c1C(=O)N1CC(C)OC(C)C1 (stereo not given),"inconclusive [activator, single point]"
19,CCC(=O)Nc1ccc(S(=O)(=O)Nc2cccc(C)c2)cc1OC,"inconclusive [activator, partial curve]"
20,CC(C)Cc1nc(N2CCN(C(=O)c3ccco3)CC2)c(C#N)c2c1CCCC2,active: 23.1 µM
21,O=C(NCC1CCCO1)c1ccc(Cl)c(S(=O)(=O)N2CCOCC2)c1 (stereo not given),inactive
22,O=C(CNC(=S)N(Cc1ccccc1)Cc1cccnc1)NC1CCCCC1,"inconclusive [activator, single point]"
23,O=C(CCNC(=O)c1ccco1)Nc1ccc(Cl)cc1,"inconclusive [activator, partial curve, poor fit]"

row,Structure (SMILES),Potency
1,O=C(O)c1ccc(C(=O)O)c(C(=O)c2ccc(NC(=O)c3ccccc3)cc2)c1,inactive
2,CC(=O)Oc1cccc(N2C(=O)C3C4C=CC(C4)C3C2=O)c1 (stereo not given),inactive
3,CCn1c(SCC(=O)Nc2ccccc2)nc2ccccc2c1=O,"inconclusive [activator, single point]"
4,O=C(O)c1cccc(CN2C(=O)S/C(=C/c3cccc([N+](=O)[O-])c3)C2=O)c1,"inconclusive [activator, single point]"
5,CCC1Nc2ncnc(N3CCOCC3)c2N(Cc2ccc(Cl)cc2)C1=O (stereo not given),inactive
6,CCN(Cc1ccncc1)Cc1cn(C)nc1-c1ccc(Oc2ccccc2)cc1,"inconclusive [activator, single point]"
7,CC(C)(C)OC(=O)N(Cc1ccccc1)Cc1ccccc1OCc1cccc(NC(=O)C2CC2)c1,active: 14.6 µM
8,O=C(Nc1cccc(Cl)c1)Nc1cc(S(=O)(=O)N2CCCCC2)ccc1Cl,active: 6.51 µM
9,Cc1noc(C)c1S(=O)(=O)Nc1ccccc1Oc1ccccc1,inactive
10,CCCCn1c(N)c(N(CC(C)C)C(=O)c2cccc(S(=O)(=O)N3CC(C)OC(C)C3)c2)c(=O)[nH]c1=O (stereo not given),"inconclusive [activator, single point]"
11,Cc1[nH]c2ccccc2c1C(=O)CN1C(=O)NC2(CC(C)CC(C)(C)C2)C1=O (stereo not given),"inconclusive [activator, single point]"
12,Cc1ccc(CNC(=O)c2ccc(N3CCC4(CC3)CC(c3cccc(Br)c3)=NO4)c(NC(=O)c3ccc(Cl)c([N+](=O)[O-])c3)c2)cc1,"inconclusive [activator, partial curve, poor fit]"
13,COc1ccc(NC(=O)CCN2CCCC2)c(OC)c1,"inconclusive [activator, full curve, poor fit]"
14,CCOC(=O)N1CCN(C(=O)/C=C/c2c(C)nn(-c3ccc(F)cc3)c2Cl)CC1,"inconclusive [activator, partial curve, poor fit]"
15,Oc1ccc(Br)cc1/C=N/n1cnc2ccccc21,"inconclusive [activator, partial curve, poor fit]"
16,O=C(CC1C(=O)Nc2ccccc2N1CC(=O)N1CCCC1)Nc1ccc(Br)cc1 (stereo not given),"inconclusive [activator, single point]"
17,Cc1cc(C(=O)CN2c3cccc4cccc(c34)S2(=O)=O)c(C)n1C,active: 3.66 µM
18,COc1cc2c3nnc(-c4ccccc4)c-3cn(Cc3ccccc3F)c2cc1OC,active: 23.1 µM
19,CC(=O)Nc1sc(NC(=O)c2ccc(C)cc2)nc1-c1cccs1,inactive
20,CN1CCN(S(=O)(=O)c2ccc(NC(=S)NC(=O)C3CCCCC3)cc2)CC1,"inconclusive [activator, partial curve, poor fit]"
21,Cc1ccc(Cl)cc1NC(=O)COC(=O)C1CCCCC1,"inconclusive [activator, single point]"
22,Cc1nc2ncccn2c1-c1csc(Nc2ccc(N(C)C)cc2)n1,"inconclusive [activator, full curve, poor fit]"
